Read counts are not given, so values of variants with three or more changes are uncertain.

The chains are these.
B1: CPEB3 Ribozyme (parent)
chain: UAACAGGGGGCCACAGCAGAAGCGUUCACGUCGCAGCCCCUGUCAGAUUCUGGUGAAUCUGCGAAUUCUGCUGUAUAUCUC

In the series the parent is B1. In words: self-cleavage, relative activity (ratio to wild type); higher = more cleavage; in vitro, sequencing. In short, it runs like this:
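Barcoded CPEB3 ribozyme mutants, produced by rounds of error-prone PCR, self-cleaved while being transcribed with T7 RNA polymerase for 5 hours at 37°C and during a subsequent 15 min DNase I step before EDTA was added. Sequencing of template-switched cDNA on Illumina gave cleaved and total reads, and DNA sequencing assigned barcodes to variants. Each variant's relative activity is its cleaved/total read fraction divided by the unmutated ribozyme's fraction, averaged across three batches. A variant needed a minimum of 5 reads.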
Turning to G9A A18G A28U U41G U69G, the self-cleavage was found to be 0.04.
Then G8C C11A C62U C68A, with 0.17.
The figure for G10A A13C A18G U51A U66C is 0.13; for G10A A20C U41C U58C U78A it is 0.04; for G9U A15G A20G U41A A56U C68G it is 0.05.
The figure for G9C A35G A47G A56G U69A is 0.08.
Turning to G9U A28U A56G U60C U80C, the self-cleavage was found to be 0.17.
On to G9A U43C U51A U78C, for which the self-cleavage stood at 0.07.
Regarding G8U U49C C62G, the self-cleavage was 0.19.
On to G9A A18G U25A A47G U54C U58C, for which the self-cleavage came to 0.05.
G8U U31A U51A U67A: the self-cleavage stood at 0.12.
The figure for G9A A28G U43C U49A C62U is 0.06.
Then G10A C14G C39A, with 0.23; and G9A A18G A20G U31A A56U, with 0.05.
Take G9U C23U U26C: the self-cleavage amounted to 0.15.
The figure for G8U G10A A20G A56U U78C is 0.05; for G9A C37G U80A it is 0.29.
Then G9A A20U A47G U58C, with 0.18; and G9A G10C A15U A57G U80A, with 0.13; and G9A A20G G61C C62U A65G U74C, with 0.03.
Then G8U A13U U41A A77U, with 0.27; and G8C U60C U76A U78C, with 0.07.
G8U C12A U80A: the self-cleavage amounted to 0.09.
The figure for G9A U26C A45G U58C A64U A65U A75U is 0.04.
The figure for G10A A45G U54A A75C is 0.09; for G10A C39U U49C A57G it is 0.11.
With G8U A13G A15U G63A, the self-cleavage came out at 0.19.
As to G8U A13G A15U G63U, the self-cleavage is 0.38.
The figure for G9A A13G G70A is 0.08.
With G9U A21G U49C, the self-cleavage is 0.14.
In the case of G9U U31C U74C, the self-cleavage stood at 0.21.
Consider G9C U51A A64U U78C, for which the self-cleavage is 0.
The figure for G9A A18U A35U A45G U67C is 0.05; for G8U A35U U43C A45G U76A it is 0.37; for G8U A21U U31C U60A U74A it is 0.06.
For G10A A18U A21G U41A A56U A57C U67C, the self-cleavage turned out to be 0.04.
Then G9A U31A G55U U69C, with 0.12; and G10A A15G G24U U41A A57U U80C, with 0.06; and G9A A20C U72C, with 0.34.
In the case of G10A A13U C23A U26C, the self-cleavage was 0.07.
Then G9U A21G U31A U66C, with 0.37; and G8U U43C U78C, with 0.1; and G8U A47G U60A U69C, with 0.04.
In the case of G8U U49A U60C, the self-cleavage came out at 0.11.
Then G9A U25C U43C U74A A77G, with 0.47.
The figure for G8U U26A U51C is 0.14.
In the case of G10A A18G U54C, the self-cleavage worked out at 0.22.
The figure for G10A A18U U72C is 0.34.
On to G9U U69C U76C, for which the self-cleavage was determined as 0.13.
Turning to G10A A18U U43C A57G A64U, the self-cleavage worked out at 0.1.
The figure for G9U C12U G19U A21C G30A U43C U66C is 0.03.
For G9A A21G C32U C39U A45U, the self-cleavage stood at 0.04.
For G9A G33A U41C A57G, the self-cleavage came to 0.06.
The figure for G9U A15U G33A U49G U58C is 0.15.
G9A G24U C34G U51C A57U U74C: the self-cleavage worked out at 0.06.
The figure for G9A U25C U31C A35G A64G C79A is 0.05; for G9U U43G A75U it is 0.19.
Then G9C C39U U43C A56G, with 0.14; and G8U A13U U41A U51A, with 0.05.
Then G8U A15U U41A U60A C68U, with 0.04; and G9U A21G U31C A45G U74C, with 0.13.
On to G8U C44G A65U U66C, for which the self-cleavage stood at 0.05.
As for G10A A20U U67C U80C, the self-cleavage was 0.06.
Then G8U A21G A56G U67C U72A, with 0.07; and G9A A47G U51C A56C, with 0.05.
For the variant G10A A20G C29U U72A U78C, the self-cleavage is 0.06.
For the variant G8U U43C U58A, the self-cleavage was 0.4.
Turning to G8U U26C A35U C40U, the self-cleavage is 0.05.
Then G9A G30A U54A U74A, with 0.44; and G9A A47G U67A, with 0.39.
Then G10A A21G U26G A64G U66C, with 0.07; and G9A A20G A35G U43C A45U A57G U69A, with 0.15; and G8C G16C A18G G36C, with 0.15.
Then G9A A13G C14U A20G U41C U60G, with 0.04; and G9C A18G G30C A45U C79U, with 0.03.
With G8U A13U U25C A56G G61U U72C, the self-cleavage amounted to 0.06.
The figure for G8U A13U U78C is 0.08.
The figure for G8U A21U U26C is 0.05; for G10A C11U A13U U49C C79U it is 0.09.
The figure for G9U A45G U48C U69C U78C is 0.07; for G9A U60A A75G it is 0.12; for G9U G70A U74A it is 0.04.
As to G9A A18U C39U U43C A45G G46U U66C, the self-cleavage turned out to be 0.04.
The figure for G9A U25C U48C U51A is 0.14; for G9A U26A A35G it is 0.59.
For G9A A18G A35G, the self-cleavage came out at 0.14.
For the variant G8U A18G U69A U72C, the self-cleavage turned out to be 0.05.
Then G8U A35U A45C, with 0.13.
The figure for G8C U26C A35U A64G is 0.41; for G10A A18G A20G it is 0.33; for G9A U26C A45G it is 0.07.
As to G9A G22U U26C U49C, the self-cleavage was determined as 0.05.
For the variant G8U A13G U41A A45C U69A, the self-cleavage is 0.11.
For the variant G9A C17U U25A U31C U49C, the self-cleavage was 0.06.
Consider G9A G19U A21G U69C, for which the self-cleavage amounted to 0.04.
With G9U A20U C23U A65U U66C U72C, the self-cleavage was found to be 0.04.
For the variant G10A A20U A35G, the self-cleavage was 0.25.
Then G8C A28U U31C U80C, with 0.23; and G8C A28G G30A U31A U67C U69G U76C, with 0.04; and G9A A56G U66C, with 0.05.
Then G9U G33U A35U U41A U43A U69A, with 0.04; and G9A A15G A45G, with 0.07.
G9C U49C A57G U60C U72A: the self-cleavage amounted to 0.17.
Turning to G9A C34U U60A A64G, the self-cleavage stood at 0.12.
Then G9A U41C U78C, with 0.46; and G9U C40A U58C A75G, with 0.06; and G8U U31A U41C U72C, with 0.07.
The figure for G8C U43C U60A U66A is 0.24.
Turning to G9A A18G A20U C29U A35G U69A, the self-cleavage turned out to be 0.06.
The figure for G10A A18G C29U U51C U66C is 0.07.
Regarding G8U C11U A28U U43C G53C A57G U80A, the self-cleavage amounted to 0.04.
Then G8U A18U U31A U74C, with 0.07.
In the case of G9A A64G U69A, the self-cleavage came out at 0.36.
In the case of G9U A13U A20G U26A, the self-cleavage came to 0.12.
The figure for G9C A18U G30A A45U is 0.06.
The figure for G9A A13G U72A is 0.4; for G9U A56G U66C it is 0.4; for G8U A20G U26A C38U U41C U49C it is 0.04.
On to G9A A13U U66C, for which the self-cleavage amounted to 0.3.
The figure for G10A A28G U48C U58C is 0.06.
The figure for G8U U41G U43C U72A is 0.2.
Then G8U C14A A64G A65G, with 0.18.
In the case of G10A A15U G36A A45G, the self-cleavage stood at 0.2.
Turning to G10A A21G A45G U66A, the self-cleavage came out at 0.08.
Then G10A A20U G36U A57U, with 0.04; and G9U A13U A20G A28U A45U A56G U60G, with 0.05.
Then G9A C23U U49C C68U, with 0.22.
Then G9U A20G A35U U41C U80C, with 0.05; and G9U G53U A57G, with 0.08.
As for G9A C14U A47G U49A A64U, the self-cleavage was 0.04.
As to G9C A57G U67C, the self-cleavage stood at 0.07.
The figure for G9U A20G U76A is 0.19; for G9A G24A C32G U72C U76A it is 0.03.
For G9U U25A C29G U31A U43C A45U U67C, the self-cleavage is 0.02.
The figure for G10A A35U U48C U76C is 0.03; for G9A C23U A35G U58C G70A U80C it is 0.1; for G9U G36C C50U U54C U66C it is 0.07.
As for G9A A15G G53U A57G, the self-cleavage came to 0.04.
With G10A A15G A47G U60A A65G G70C, the self-cleavage turned out to be 0.17.
As to G8U A35G A45G U49C, the self-cleavage was determined as 0.07.
Then G9A C12A U60A, with 0.06.
Take G9U A20U U43C: the self-cleavage stood at 0.06.
Then G9U A15U U51G U60A U72C, with 0.05; and G9U U25C U41C G53A, with 0.18; and G9C A20G U60A, with 0.38.
Then G8C G22C A35G A45G, with 0.06.
Then G8U A28G U67C, with 0.1; and G9A U26A A28G G55U A57G U66C U72A, with 0.04; and G10A A18C A21U A35C C62U, with 0.04.
Regarding G8U A57G U67A C68A U76A, the self-cleavage was 0.05.
With G9A A20G U25C, the self-cleavage was 0.06.
On to G9A U48C A56G A57U, for which the self-cleavage was determined as 0.09.
Then G9A C38A U58C, with 0.04; and G9A U41A A64U, with 0.07.
The figure for G9U C17U A20U is 0.06.
Then G10A A20G A45G A64G, with 0.07; and G8U A21G C23A U43C U69A, with 0.1.
For the variant G8U A20G A21G U60A U80C, the self-cleavage turned out to be 0.17.
In the case of G9U A13G G24U C29A A35G U69C, the self-cleavage was found to be 0.06.
As to G10A A18G U67C U78A, the self-cleavage amounted to 0.04.
For the variant G9A U26A U51C G63C, the self-cleavage came out at 0.07.
Then G8U U60C U67C, with 0.06.
As to G10A A35C C68G, the self-cleavage was determined as 0.02.
On to G9A U31C A64U U72A, for which the self-cleavage stood at 0.1.
Take G9C A21U A57G U80C: the self-cleavage came out at 0.05.
Take G9U C38U U72A U78C: the self-cleavage is 0.08.
The figure for G9A A18G C34G is 0.06.
